The supplement of paper PMC4604168 (melanoma cell lines)
The other results are listed elsewhere or left out. Repeats are few or missing, and single values can be far off.

Tested on: COLO829
Test: cell count relative to DMSO control; melanoma cells; higher = more viable cells
Settings: library dose: standard library concentration; 72 h
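Further: cells treated in 1,536-well plates, then fixed and DAPI-stained, with nuclei counted from automated high-throughput microscope images.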

SMILES	cell count [%]
Cc1cc(Nc2cc(N3CCN(C)CC3)nc(/C=C/c3ccccc3)n2)n[nH]1 + O=c1cc(-c2cccc3c2Sc2ccccc2S3)oc(N2CCOCC2)c1 [KU55933] (first compound 0.2 µM, partner dose 5 µM)	102
COc1ccc(C2=N[C@@H](c3ccc(Cl)cc3)[C@@H](c3ccc(Cl)cc3)N2C(=O)N2CCNC(=O)C2)c(OC(C)C)c1 [Nutlin-3] + Cn1nnc2c(C(N)=O)ncn2c1=O [temozolomide] (first compound 0.5 µM, partner dose 10 µM)	64.9
Cn1c(=O)n(-c2ccc(C(C)(C)C#N)cc2)c2c3cc(-c4cnc5ccccc5c4)ccc3ncc21 + Cn1cc(/C=C2\C(=O)Nc3cccnc32)c2ccccc21 [GW441756] (first compound 0.02 µM, partner dose 2 µM)	106
Cc1cc(Nc2cc(N3CCN(C)CC3)nc(/C=C/c3ccccc3)n2)n[nH]1 + O=C(Nc1cccc(Cl)c1)Nc1ncc(CCNc2ncnc3ccsc23)s1 [SNS314] (first compound 0.2 µM, partner dose 0.004 µM)	54.9
Cc1cn(-c2cc(NC(=O)c3ccc(C)c(Nc4nccc(-c5cccnc5)n4)c3)cc(C(F)(F)F)c2)cn1 [nilotinib] + C[C@@H](N)c1ccc(C(=O)Nc2ccnc3[nH]ccc23)cc1 [RKI983] (first compound 1 µM, partner dose 2 µM)	113
Cc1cc(Nc2cc(N3CCN(C)CC3)nc(/C=C/c3ccccc3)n2)n[nH]1 + CN1CCN(c2ccc3nc(-c4c(N)c5c(F)cccc5[nH]c4=O)[nH]c3c2)CC1 [Dovitinib] (first compound 0.2 µM, partner dose 0.5 µM)	53.5
Cc1cn(-c2cc(NC(=O)c3ccc(C)c(Nc4nccc(-c5cccnc5)n4)c3)cc(C(F)(F)F)c2)cn1 [nilotinib] + CCCCCCCCCCCC1=C(O)C(=O)C=C(O)C1=O [Embelin] (first compound 1 µM, partner dose 6 µM)	89.3
COc1ccc(C2=N[C@@H](c3ccc(Cl)cc3)[C@@H](c3ccc(Cl)cc3)N2C(=O)N2CCNC(=O)C2)c(OC(C)C)c1 [Nutlin-3] + O=C(O)[C@@H]1[O][Sb](=[O])([O][Sb]2(=[O])[O][C@H]([C@H](O)CO)[C@H](O)[C@H](C(=O)O)[O]2)[O][C@H]([C@H](O)CO)[C@@H]1O [stibogluconate] (first compound 0.5 µM, partner dose 10 µM)	76.9
CC(C)C[C@H](NC(=O)[C@H](Cc1ccccc1)NC(=O)c1cnccn1)B(O)O [Bortezomib] + C#Cc1cccc(Nc2ncnc3cc(OCCOC)c(OCCOC)cc23)c1 [erlotinib] (first compound 0.005 µM, partner dose 4 µM)	14.2
Cn1c(=O)n(-c2ccc(C(C)(C)C#N)cc2)c2c3cc(-c4cnc5ccccc5c4)ccc3ncc21 + CN(C)S(=O)(=O)c1ccc2c(c1)/C(=C/c1cc3c([nH]1)CCCC3)C(=O)N2 [SU6656] (first compound 0.02 µM, partner dose 2 µM)	90.2
Cn1c(=O)n(-c2ccc(C(C)(C)C#N)cc2)c2c3cc(-c4cnc5ccccc5c4)ccc3ncc21 + Nc1cccc2c1CN(C1CCC(=O)NC1=O)C2=O [lenalidomide] (first compound 0.02 µM, partner dose 5 µM)	92.1
Cc1cn(-c2cc(NC(=O)c3ccc(C)c(Nc4nccc(-c5cccnc5)n4)c3)cc(C(F)(F)F)c2)cn1 [nilotinib] + C[C@]1(c2nc3c(C(N)=O)cccc3[nH]2)CCCN1 [Veliparib] (first compound 1 µM, partner dose 7 µM)	88.3
Cn1c(=O)n(-c2ccc(C(C)(C)C#N)cc2)c2c3cc(-c4cnc5ccccc5c4)ccc3ncc21 + C=CCn1c(=O)c2cnc(Nc3ccc(N4CCN(C)CC4)cc3)nc2n1-c1cccc(C(C)(C)O)n1 [MK1775] (first compound 0.02 µM, partner dose 0.1 µM)	76.9
CC(C)C[C@H](NC(=O)[C@H](Cc1ccccc1)NC(=O)c1cnccn1)B(O)O [Bortezomib] + O=c1cc(-c2cccc3c2Sc2ccccc2S3)oc(N2CCOCC2)c1 [KU55933] (first compound 0.005 µM, partner dose 5 µM)	8.49
Cc1cc(Nc2cc(N3CCN(C)CC3)nc(/C=C/c3ccccc3)n2)n[nH]1 + O=C(O)c1ccc(-c2c[nH]c3ncc(-c4ccccc4)cc23)cc1C1CCCC1 [GSK650394] (first compound 0.2 µM, partner dose 0.8 µM)	86.4
Cc1cc(Nc2cc(N3CCN(C)CC3)nc(/C=C/c3ccccc3)n2)n[nH]1 + Nc1cccc2c1CN(C1CCC(=O)NC1=O)C2=O [lenalidomide] (first compound 0.2 µM, partner dose 5 µM)	96.8
Cn1c(=O)n(-c2ccc(C(C)(C)C#N)cc2)c2c3cc(-c4cnc5ccccc5c4)ccc3ncc21 + CS(=O)(=O)CCNCc1ccc(-c2ccc3ncnc(Nc4ccc(OCc5cccc(F)c5)c(Cl)c4)c3c2)o1 [lapatinib] (first compound 0.02 µM, partner dose 4 µM)	62.3
COc1ccc(C2=N[C@@H](c3ccc(Cl)cc3)[C@@H](c3ccc(Cl)cc3)N2C(=O)N2CCNC(=O)C2)c(OC(C)C)c1 [Nutlin-3] + CCCS(=O)(=O)Nc1ccc(F)c(C(=O)c2c[nH]c3ncc(Cl)cc23)c1F [PLX4720] (first compound 0.5 µM, partner dose 0.4 µM)	71.2
CC(C)C[C@H](NC(=O)[C@H](Cc1ccccc1)NC(=O)c1cnccn1)B(O)O [Bortezomib] + C=CCn1c(=O)c2cnc(Nc3ccc(N4CCN(C)CC4)cc3)nc2n1-c1cccc(C(C)(C)O)n1 [MK1775] (first compound 0.005 µM, partner dose 0.1 µM)	12.7
Cn1c(=O)n(-c2ccc(C(C)(C)C#N)cc2)c2c3cc(-c4cnc5ccccc5c4)ccc3ncc21 + CC(C)C[C@H](NC(=O)[C@H](Cc1ccccc1)NC(=O)c1cnccn1)B(O)O [Bortezomib] (first compound 0.02 µM, partner dose 0.005 µM)	21.3
Cc1cc(Nc2cc(N3CCN(C)CC3)nc(/C=C/c3ccccc3)n2)n[nH]1 + Cc1cc([N+](=O)[O-])ccc1NS(=O)(=O)c1cc(Cl)ccc1Cl [FH535] (first compound 0.2 µM, partner dose 5 µM)	81.2
Cc1cn(-c2cc(NC(=O)c3ccc(C)c(Nc4nccc(-c5cccnc5)n4)c3)cc(C(F)(F)F)c2)cn1 [nilotinib] + COc1cc(N2CCC(N3CCN(C)CC3)CC2)ccc1Nc1ncc(Cl)c(Nc2ccccc2S(=O)(=O)C(C)C)n1 [NVP-TAE684] (first compound 1 µM, partner dose 0.4 µM)	103
CC(C)C[C@H](NC(=O)[C@H](Cc1ccccc1)NC(=O)c1cnccn1)B(O)O [Bortezomib] + O=C(O)C(=O)Nc1sc2c(c1C(=O)O)CCNC2 [TCS401] (first compound 0.005 µM, partner dose 8.33333 µM)	25.9
CC(C)C[C@H](NC(=O)[C@H](Cc1ccccc1)NC(=O)c1cnccn1)B(O)O [Bortezomib] + CC(C)CCN1c2nc(Nc3cc(F)c(O)c(F)c3)ncc2N(C)C(=O)C1C [BID1870] (first compound 0.005 µM, partner dose 1 µM)	14.5
Cc1cn(-c2cc(NC(=O)c3ccc(C)c(Nc4nccc(-c5cccnc5)n4)c3)cc(C(F)(F)F)c2)cn1 [nilotinib] + NC(=O)c1ccc(N(C(N)=O)c2c(F)cccc2F)nc1-c1ccc(F)cc1F [VX702] (first compound 1 µM, partner dose 2 µM)	111
CC(C)C[C@H](NC(=O)[C@H](Cc1ccccc1)NC(=O)c1cnccn1)B(O)O [Bortezomib] + O=C(Nc1ccccc1)c1cc([N+](=O)[O-])ccc1Cl [GW9662] (first compound 0.005 µM, partner dose 10 µM)	5.97
Cc1cn(-c2cc(NC(=O)c3ccc(C)c(Nc4nccc(-c5cccnc5)n4)c3)cc(C(F)(F)F)c2)cn1 [nilotinib] + Cn1c(=O)n(-c2ccc(C(C)(C)C#N)cc2)c2c3cc(-c4cnc5ccccc5c4)ccc3ncc21 [NVP-BEZ235] (first compound 1 µM, partner dose 0.02 µM)	81.6
Cc1cc(Nc2cc(N3CCN(C)CC3)nc(/C=C/c3ccccc3)n2)n[nH]1 + CS(=O)(=O)CCNCc1ccc(-c2ccc3ncnc(Nc4ccc(OCc5cccc(F)c5)c(Cl)c4)c3c2)o1 [lapatinib] (first compound 0.2 µM, partner dose 4 µM)	75.4
COc1ccc(C2=N[C@@H](c3ccc(Cl)cc3)[C@@H](c3ccc(Cl)cc3)N2C(=O)N2CCNC(=O)C2)c(OC(C)C)c1 [Nutlin-3] + COc1ccc(Cl)c(Nc2nc3ccccc3nc2NS(=O)(=O)c2cccc(NC(=O)C(C)(C)N)c2)c1 [XL147] (first compound 0.5 µM, partner dose 4 µM)	76.5
COc1ccc(C2=N[C@@H](c3ccc(Cl)cc3)[C@@H](c3ccc(Cl)cc3)N2C(=O)N2CCNC(=O)C2)c(OC(C)C)c1 [Nutlin-3] + CN(c1ncccc1CNc1nc(Nc2ccc3c(c2)CC(=O)N3)ncc1C(F)(F)F)S(C)(=O)=O [PF562271] (first compound 0.5 µM, partner dose 0.4 µM)	61.6
